In all, about 33,000 sequences were measured (“E-score (-0.5 to 0.5)”: median about -0.035, highest 2% from about 0.35 on). This is one part of the list.
target: T1, Pdr3 (UniProt P33200); test: PBM E-score (8-mer binding enrichment) (E-score (-0.5 to 0.5)); higher = stronger / more preferred TF binding; most listed sequences are background and not binding sites; conditions: protein concentration: 200 nM; construct: GST-full length
T1 sequence: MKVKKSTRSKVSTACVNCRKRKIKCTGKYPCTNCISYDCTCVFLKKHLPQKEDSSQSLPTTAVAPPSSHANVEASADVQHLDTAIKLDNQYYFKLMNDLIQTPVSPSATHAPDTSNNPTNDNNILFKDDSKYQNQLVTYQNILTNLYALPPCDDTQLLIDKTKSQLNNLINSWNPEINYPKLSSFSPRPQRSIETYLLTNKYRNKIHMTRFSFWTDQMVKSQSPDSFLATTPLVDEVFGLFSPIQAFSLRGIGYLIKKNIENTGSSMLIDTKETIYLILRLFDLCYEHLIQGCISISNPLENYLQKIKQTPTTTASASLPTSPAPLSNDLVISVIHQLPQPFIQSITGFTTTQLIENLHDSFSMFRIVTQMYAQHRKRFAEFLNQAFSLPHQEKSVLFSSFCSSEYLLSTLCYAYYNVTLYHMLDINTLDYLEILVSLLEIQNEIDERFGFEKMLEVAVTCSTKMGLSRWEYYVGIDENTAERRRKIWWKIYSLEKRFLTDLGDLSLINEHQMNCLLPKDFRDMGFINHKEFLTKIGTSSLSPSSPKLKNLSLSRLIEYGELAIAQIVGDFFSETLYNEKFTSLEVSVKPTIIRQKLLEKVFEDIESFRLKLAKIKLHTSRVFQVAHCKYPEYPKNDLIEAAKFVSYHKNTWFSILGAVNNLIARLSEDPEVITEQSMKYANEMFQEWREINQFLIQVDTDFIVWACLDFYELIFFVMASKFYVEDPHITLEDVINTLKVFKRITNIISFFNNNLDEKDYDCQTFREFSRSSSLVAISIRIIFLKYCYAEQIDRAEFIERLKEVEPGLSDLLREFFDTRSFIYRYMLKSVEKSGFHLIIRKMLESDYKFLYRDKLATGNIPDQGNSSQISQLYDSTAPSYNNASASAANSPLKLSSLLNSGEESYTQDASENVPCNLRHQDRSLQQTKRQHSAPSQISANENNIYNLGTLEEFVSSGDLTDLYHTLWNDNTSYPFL
Outline: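 Bound GST-tagged yeast transcription factors, applied at about 100-200 nM to double-stranded universal all-10-mer Agilent arrays, were detected with fluorescent anti-GST. Scans were normalised with masliner. A modified Wilcoxon-Mann-Whitney statistic, the E-score, was assigned to each ungapped eight-base word pooled with its reverse complement by the Universal PBM Analysis Suite.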

Row | Sequence | PBM E-score
1 | CTTACAAG | -0.287
2 | AAATTTGA | 0.0772
3 | GCGATTCC | 0.34
4 | ACATACCT | -0.153
5 | GTACTGAC | 0.0573
6 | CGATCTTC | 0.0584
7 | AACTACGG | 0.148
8 | CCCCGTTA | -0.0425
9 | AACGCTCT | -0.296
10 | AGGAGGTC | -0.3
11 | CAGCCCAG | -0.0737
12 | GAGATTGC | 0.00891
13 | AGCGTAGC | -0.158
14 | AATAGCGG | 0.0347
15 | GAGTATTA | -0.139
16 | CCTTCGTC | -0.0279
17 | CTCCGCCC | 0.322
18 | GCAGAGTA | -0.09
19 | CAAACGGC | 0.0983
20 | ATTGAAGG | -0.167
21 | CCTGTGAC | -0.23
22 | AAGCTGAC | -0.0901
23 | CCGGCATC | 0.297
24 | AAATGCCG | 0.321
25 | CCGAACCA | 0.244

Row | Sequence | PBM E-score
26 | TCGGAGCA | 0.28
27 | AGCCCGCA | 0.0472
28 | ACCTGAGA | -0.106
29 | CCCTCTAC | -0.26
30 | AATGATTC | 0.0328
31 | ACCGACCC | 0.148
32 | ACCGCAGT | -0.0479
33 | GAGCCCGA | 0.0338
34 | AAAAGGAC | -0.127
35 | AACCACTG | 0.0187
36 | CCCTATGC | -0.0766
37 | AGAAAGCG | -0.0665
38 | ACTTCGGA | 0.318
39 | CCTAAGGA | -0.0766
40 | AGGCGACT | -0.181
41 | CAACACCG | 0.0699
42 | CTATAGTC | -0.252
43 | ACTTACAA | -0.111
44 | AAGAGTAA | -0.0182
45 | ATTCCTCG | 0.173
46 | AACCGTAT | -0.168
47 | ACTCCCCA | -0.057
48 | CCGCCCCA | 0.232
49 | AGTGTCTA | -0.166
50 | CGTAATCA | -0.0531

Row | Sequence | PBM E-score
51 | CTTACTCC | 0.0953
52 | ATGGGTAA | 0.0423
53 | GTGGCAAC | 0.0213
54 | ATATTATA | -0.00722
55 | ATACACCG | 0.1
56 | ACGGAAGA | 0.373
57 | CTGGTCAA | -0.0866
58 | CTAGACCA | -0.277
59 | CGGCCTGA | 0.00266
60 | AAGCGGCC | 0.0193
61 | ATTTAGAA | -0.196
62 | CCGTACCG | 0.24
63 | GGCACAAA | 0.0885
64 | GACAAAGA | -0.0013
65 | CAGTGTAA | 0.132
66 | GGACCCAC | 0.03
67 | CACGAGCG | -0.129
68 | AACCATTA | 0.0693
69 | AGGAGCTC | -0.135
70 | CCGGTCTA | -0.0526
71 | GAGGATGA | -0.114
72 | AGACCATC | -0.147
73 | CAGGTCTA | 0.0945
74 | CACTCCTC | 0.0698
75 | CTACGACC | -0.144

Row | Sequence | PBM E-score
76 | AGCTCCGG | 0.389
77 | CGGTGCTC | 0.0311
78 | ATAATACG | 0.114
79 | AACGGAAA | 0.464
80 | CAGGCCCG | 0.125
81 | ACATACTG | 0.154
82 | CACTCACG | 0.0943
83 | CTGATACC | -0.165
84 | AGAAATCG | -0.0345
85 | GACTCATA | -0.0806
86 | CGGCGCTC | 0.138
87 | TCGCGTAA | 0.00456
88 | AGTCTCGA | -0.176
89 | CTTCTCCC | -0.0265
90 | GTCCAGCA | -0.11
91 | AGTTAAGC | 0.00589
92 | ACTAACAC | -0.0275
93 | AAGTCTCA | -0.263
94 | CTAATGAA | 0.0633
95 | AAAGATAG | -0.169
96 | AACGCATC | -0.139
97 | CCTAATCG | 0.0545
98 | CTTTTGAA | 0.0453
99 | CTTGGAGA | -0.048
100 | CGCGAAAA | 0.096

Row | Sequence | PBM E-score
101 | TAGTGAAA | -0.159
102 | CGTACTAG | -0.0852
103 | GGACCTTA | 0.0891
104 | CCCTAGGC | -0.161
105 | ATGACCGA | 0.0641
106 | CTACCCGA | 0.167
107 | AGAGGCGG | 0.0483
108 | AAACTCTG | 0.0425
109 | CGGGCACC | 0.296
110 | AAAAGTTC | 0.112
111 | ATTTTCTA | -0.183
112 | GGTACCAA | 0.00603
113 | AATAGATG | -0.0108
114 | GTTAGTTA | 0.11
115 | CGTGCTGC | -0.0883
116 | GCCGAGCC | 0.198
117 | ACACTCGA | -0.114
118 | CACTGTCC | 0.0603
119 | AACTGATA | 0.0335
120 | CTGCAACC | -0.227
121 | CATTTGAA | -0.0395
122 | CTCTCCGC | 0.237
123 | GTACTTTA | -0.147
124 | CCCAGCCG | 0.108
125 | CCGCTGGC | -0.0496

Row | Sequence | PBM E-score
126 | GAAACACC | 0.00818
127 | CATAAGGG | -0.0109
128 | GCCCACTA | -0.152
129 | AGCCTATA | -0.132
130 | AGTCCCCG | 0.113
131 | AATTGATC | 0.119
132 | AGTGAGAT | -0.0498
133 | CCCTTGCG | -0.286
134 | ATGCGTAA | -0.171
135 | TATACCCA | 0.0374
136 | CGCAAGTC | -0.0366
137 | AGTGTATC | -0.0144
138 | AGGGTCGG | 0.0674
139 | AGAGCACT | -0.06
140 | CGGGTATA | 0.268
141 | AACGACCA | -0.144
142 | GGGGGCTA | -0.277
143 | AGAACTGG | 0.137
144 | GGAGGACA | 0.0482
145 | ATGCTTCA | -0.155
146 | AATGGCAT | 0.181
147 | AATACTGA | -0.146
148 | TACAGGGA | -0.142
149 | AAGCGACC | 0.168
150 | CGTCGGAC | 0.252

Row | Sequence | PBM E-score
151 | TAAGACCA | -0.188
152 | ACATACGG | 0.0566
153 | GGTCTAAA | -0.19
154 | CTCCACCA | -0.165
155 | ACTTTCTA | -0.243
156 | GAAACAAC | 0.172
157 | CGAGCTGC | 0.108
158 | GGACCAGA | -0.0202
159 | CGAGTTGA | 0.0225
160 | GCACGGAA | 0.451
161 | GCGCATCA | -0.0112
162 | AAAAGGGC | -0.0865
163 | AGGTAGAA | -0.104
164 | CAGCTTAC | -0.193
165 | AAGTCCAA | -0.0468
166 | ATCGTACC | 0.0118
167 | CACGCAAA | -0.129
168 | AATTTCCA | -0.0143
169 | GGTAGGCA | -0.136
170 | AAAGGTGC | -0.094
171 | GGGACTAA | -0.0858
172 | AGCTGCTC | -0.108

— the supplement of paper PMC3334620
